PubChem BioAssay AID2675 (National Center for Advancing Translational Sciences (NCATS), 2010)
In all, about 280,000 compounds went through this assay and about 100 (0.036%) were called active. Inconclusive means that the source gave no clear call. Such entries were picked first, then a sample of the others. Calls follow the shape of the dose curve; as a rule, active = well fitted inhibition curve with a large enough effect in the signal ratio, with a control signal flat (not every such curve was filed as active); inconclusive = small, poorly fitted or top-dose-only effect, or effect the other way, or a change in a side signal; inactive = no such curve, though single readings can be large or run the other way; the % refers to the signal ratio. A potency beside an inconclusive call is a rough fit, not a confirmed value. “Side channel” marks fits to a control or component signal instead of the main read-out.

Each compound was assayed against Muscleblind-like protein 1 (Homo sapiens) (UniProt Q9NR56) (assay: qHTS Assay for Inhibitors of MBNL1-poly(CUG) RNA binding). Details: TR-FRET MBNL1-His/biotin-(CUG)12 binding, 665/545 ratio; activity change, negative = inhibition: at 57.5 µM (top of the series).
Outline: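 MBNL1-His + Biotin-(CUG)12, cpd titration 92 nM–58 uM; Tb anti-His Ab 0.055 ng/ul, SA-XL665 5 nM (final); 60 min RT; ratiometric 665/545 nm, Ex 340 nm; normalized to buffer and full-complex controls.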
% is scaled to controls: 0 for no effect and ±100 for the full control effect; potency is read from the fitted curve at half-maximal effect; tags tell the direction and shape of the fitted curve or compound fluorescence and quenching.

Chain of UniProt Q9NR56 (Q9NR56 whole entry, looked up): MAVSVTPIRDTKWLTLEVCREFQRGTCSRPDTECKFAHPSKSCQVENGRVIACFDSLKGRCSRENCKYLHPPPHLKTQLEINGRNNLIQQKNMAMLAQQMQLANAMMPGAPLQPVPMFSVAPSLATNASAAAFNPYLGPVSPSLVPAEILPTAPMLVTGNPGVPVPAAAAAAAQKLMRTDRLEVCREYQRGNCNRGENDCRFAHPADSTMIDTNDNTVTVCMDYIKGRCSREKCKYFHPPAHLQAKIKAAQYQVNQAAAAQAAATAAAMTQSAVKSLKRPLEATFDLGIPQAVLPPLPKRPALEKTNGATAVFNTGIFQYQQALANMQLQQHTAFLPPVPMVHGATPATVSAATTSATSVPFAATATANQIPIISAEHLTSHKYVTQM

SMILES | activity change, negative = inhibition | Potency
COc1cccc(-c2c(C(=O)N/N=C(\C)c3ccc(Cl)s3)nnn2-c2nonc2N)c1 | inactive: -3.76% | 
CC(=O)c1sc(NC(=O)COc2ccccc2)nc1C | inactive: 31.2% | 
Oc1ccccc1N=Cc1ccc[nH]1 |  | inconclusive: 14.1 µM [quencher, side channel, partial curve]
O=[N+]([O-])c1ccc(C=Nc2cccc3ccccc23)s1 | inactive: 27.8% | 
CC(=O)OCCNc1cc(Sc2nc3ccccc3[nH]2)c2nonc2c1[N+](=O)[O-] |  | inconclusive: 3.98 µM [quencher, side channel, partial curve]
Cc1nn(CC(=O)Nc2cccc(C(F)(F)F)c2)c(=O)c2cccn12 | inactive: 2.66% | 
CCn1cc(/C=N/NC(=O)c2ccc3c(c2)OCO3)cn1 |  | inconclusive: 0.794 µM [quencher, side channel, full curve, poor fit]
COc1ccc(-c2cc3c(nn2)-c2ccccc2C3=O)cc1 |  | inconclusive: 1.78 µM [quencher, side channel, full curve]
CCOC(=O)Nc1nn(-c2ccc(C)cc2)c(=O)c(C#N)c1C |  | inconclusive: 12.6 µM [quencher, side channel, partial curve]
COc1ccc(CNCc2ccc([N+](=O)[O-])cc2)cc1OC |  | inconclusive: 8.91 µM [quencher, side channel, partial curve]
CC(C)CCN1CCN(C2CSCCSC2)CC1CCO (stereo not given) |  | inconclusive: 7.94 µM [inhibitor, single point]
O=C(Nc1ccccc1C(=O)Nc1ccccc1)c1ccccc1F |  | inconclusive: 25.1 µM [fluorescent, side channel, single point]
CCOC(=O)COn1c(=O)c(-c2ccc(C)cc2)[n+]([O-])c2ccccc21 |  | inconclusive: 1.58 µM [quencher, side channel, partial curve, poor fit]
Cc1ccc(NC(=O)c2cccs2)cc1[N+](=O)[O-] |  | inconclusive: 17.8 µM [quencher, side channel, partial curve]
Cc1ccc(C)c(NC(=S)c2ccc3ccccc3n2)c1 |  | inconclusive: 39.8 µM [quencher, side channel, single point]
COc1cccc(NC(=O)Nc2cccnc2)c1 |  | inconclusive: 100 µM [inhibitor, partial curve]
COc1ccc(N=C2NN=C(c3ccc4c(c3)OCCO4)CS2)cc1 |  | inconclusive: 39.8 µM [quencher, side channel, partial curve]
CN(CC(=O)NCCN1CCCCCC1)S(=O)(=O)c1cccc2nsnc12 |  | inconclusive: 20 µM [quencher, side channel, partial curve]
NC(=O)c1nnn(-c2ccc([N+](=O)[O-])cc2)c1-c1ccccc1 |  | inconclusive: 14.1 µM [quencher, partial curve]
Cc1ccsc1/C=N/NC(=O)c1nnn(-c2nonc2N)c1CSc1ccccc1 | inactive: -1.3% | 

SMILES | activity change, negative = inhibition | Potency
COc1ccc(Nc2ccc([N+](=O)[O-])c3nonc23)c(OC)c1 |  | inconclusive: 1.58 µM [quencher, side channel, full curve, poor fit]
COc1ccc(CN(C(=O)Cc2c[nH]c3ccccc23)C(C(=O)NC2CCCCC2)c2ccc(C)o2)cc1 (stereo not given) |  | inconclusive: 0.158 µM [fluorescent, side channel, full curve, poor fit]
O=C(Nc1cccc(Cl)c1)c1ccc(Cn2cc(Cl)cn2)cc1 |  | inconclusive: 0.398 µM [fluorescent, side channel, partial curve]
O=C(NCC1CCCO1)c1csc(Nc2cccc3ccccc23)n1 (stereo not given) |  | inconclusive: 39.8 µM [quencher, side channel, single point]
O=C(CSc1n[nH]c(-c2ccccn2)n1)Nc1cccc(Cl)c1 | inactive: 1.97% | 
O=C(OCC(=O)N1CCN(C(=O)c2ccco2)CC1)c1cc(-c2ccco2)nc2ccccc12 |  | inconclusive: 11.2 µM [quencher, side channel, partial curve]
O=C(NCc1ccncc1)c1ccc(N2CCCC2)c([N+](=O)[O-])c1 |  | inconclusive: 15.8 µM [quencher, partial curve]
COc1cc2c(cc1OC)N1C(=O)CC(OCC(=O)O)C3C4CC5(CCN5C(=O)C4=O)C2C31 (stereo not given) |  | inconclusive: 28.2 µM [quencher, side channel, partial curve]
CCNC(=O)/C(=C\C=C\c1ccccc1)NC(=O)c1ccc(Br)o1 | inactive: 6.83% [at 11.5 µM] | 
COC(=O)C(NC(C)=O)(Nc1nc2c(C)cc(C)cc2s1)C(F)(F)F (stereo not given) | inactive: -1.19% | 
CN(CC(=O)NCc1cccs1)S(=O)(=O)c1cccc2nsnc12 |  | inconclusive: 12.6 µM [quencher, side channel, partial curve]
COCCN1C(=O)c2cc(C(=O)Nc3ccc(C)c(F)c3)ccc2C1Nc1ccc(C)c(F)c1 (stereo not given) |  | inconclusive: 251 µM [inhibitor, partial curve]
CCCCn1c(NC(C)=O)c(C#N)c2nc3ccccc3nc21 |  | inconclusive: 20 µM [quencher, side channel, partial curve]
Cc1ccc(CN(C(=O)COc2ccc([N+](=O)[O-])cc2)C2CCS(=O)(=O)C2)o1 (stereo not given) |  | inconclusive: 14.1 µM [quencher, side channel, partial curve]
COc1cnc(-c2ccccn2)nc1Sc1c(Cl)cccc1Cl | inactive: 6.01% | 
CCCCNC(=O)CSc1nc(CCC)nc2ccccc12 |  | inconclusive: 39.8 µM [fluorescent, side channel, single point]
CCOC(=O)N1CCC(=NNc2nc3ccccc3s2)CC1 | inactive: -0.643% | 
Cn1nnnc1Sc1c(Cl)cccc1[N+](=O)[O-] |  | inconclusive: 25.1 µM [quencher, side channel, partial curve, poor fit]
COc1ccc(NC(=O)CN2C(=O)COc3ccc(S(=O)(=O)N4CCOCC4)cc32)cc1Cl | inactive: -2.87% | 
CC(=O)NC(=S)Nc1ccc([N+](=O)[O-])cc1C |  | inconclusive: 12.6 µM [quencher, side channel, partial curve]
